# Laboratory results reported in the supplement of paper PMC11417369.
# ± gives the standard deviation of the averaged measurements. The list shows a part of the results.
# Test system: PfAP2-EXP AP2 domain (GST-tagged)
# Assay: gcPBM binding intensity (ln(normalized median fluorescence intensity)); higher = stronger DNA binding
# How it was run: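 GST-tagged P. falciparum DNA-binding domains, expressed in E. coli (about 25 μg on average), were applied for 1 h to an Agilent 4 × 180k array of primer-extended double-stranded 36-bp intergenic genomic probes plus negative controls. The binding buffer was 1× PBS with 1% milk, 0.2 mg/ml BSA, 0.5% salmon testes DNA and 0.03% Triton X-100. Bound protein was detected with Alexa488 anti-GST antibody and scanned at 488 nm. Binding intensity is the highest Masliner-normalised natural-log median intensity across replicate spots of either probe orientation.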
row,Sequence,gcPBM binding intensity (ln)
1,ATATGTATTTATATATGTTTGATTTTTTTTTTTTTT [TGCATGCA_negctrl_site506],8.12 ± 0.4
2,AAATGAAATAAAATCATATATTTATAATTATTATAA [TGCATGCA_negctrl_site612],7.88 ± 0.3
3,CATACAGACATACATACACACATACCTATAAATATA [CACACA_site6995],8.51 ± 0.53
4,AGGAAAAAAGAAAAAACACACATAAATATATATATA [CACACA_site3085],9.64 ± 0.23
5,TAGCTCGTTCGGAGCACACACATATATATATATATA [CACACA_site1948],10.3 ± 0.28
6,ATATGTATGTATGTATGTACTTATTTATTTATTAAT [XGTACX_site8018],8.35 ± 0.2
7,TACATAAATTAAAACACACACACACTAATAAAAAAA [CACACA_site8712],8.77 ± 0.64
8,ATTCAATATATATACACACACACTTTTAATAATTAA [CACACA_site3770],8.57 ± 0.38
9,GTTTTATTTTGTTTCTATTTGACACATGTGATTATT [CACACA_negctrl_site1246],9.12 ± 0.42
10,CATATATATAATTATTCACACAATAGTTAAAAGTAT [CACACA_site5302],8.63 ± 0.39
11,AAAAAATTATATAAATGTACATTTTGGCTAGACATG [XGTACX_site5977],8.66 ± 0.51
12,TTTTTTTTTGAATATTGTACATATATATTACTTTTA [XGTACX_site5520],8.46 ± 0.43
13,GATATACAATTTAAGTGTACTATAATAAAATATATA [XGTACX_site3013],8.26 ± 0.3
14,ATAAAAAAATATAAATGTACATATATATATATATAT [XGTACX_site5620],10.2 ± 0.2
15,ATTTATCTATATATATGTACATATTATTTTTGTGGT [XGTACX_site7390],8.79 ± 0.32
16,TATATTAATTCGTTTTGTACACACATAATGAATAAT [XGTACX_site4618],8.34 ± 0.23
17,ATAAGCATCTTTTGTGTGCACATAACAAAAAAAAAA,8.74 ± 0.22
18,ATTAAATAAAATCATGCACACAATATATATTTTAAG [CACACA_site2495],8.46 ± 0.34
19,TTTAAAATATTGTATTGTACGCAATAAAAAATACCA [XGTACX_site182],8.6 ± 0.26

row,Sequence,gcPBM binding intensity (ln)
1,TCTAACATATCTTTAATACACACTTAAAAAAGTACT [CACACA_site652],8.31 ± 0.3
2,ATAGATATACATATCACACATATATATATATATATA [CACACA_site4985],10.2 ± 0.23
3,AAATACATATATACATGTACATAAATATATATATAT [XGTACX_site5367],9.76 ± 0.38
4,TAAGGTAGTTCTGTATCACACACATATATATATATA [CACACA_site8693],10.1 ± 0.26
5,AATCCATTCTATTTTTTACACACGTATGTAAATATT [CACACA_site8860],8.71 ± 0.55
6,TGAGAAAGCGCATATTGTACTATATATTTTAACCAC [XGTACX_site4098],8.9 ± 0.54
7,GAAAATAATGTTACATGTACGAATATGTAACTATTG [XGTACX_site6833],8.48 ± 0.35
8,AATATATATGGACATGCATGGACATAATAATCTATT [TGCATGCA_site838],8.89 ± 0.47
9,CATAAAAATGTATCAAGTACACATTTATTTATCCAT [XGTACX_site152],8.38 ± 0.23
10,TACAGATAAAAGTACACACACACACCGATATATATA [CACACA_site4675],8.86 ± 0.38
11,GTATAACACAAGTGAAGTACAGGGGTAAACATTTAT [XGTACX_site3203],8.91 ± 0.59
12,ATAAAAAAATATGTAAACATATATATGTATTTATGT [CACACA_negctrl_site1517],8.36 ± 0.45
13,TTAAAATAAAGAGCAGTGCGCATATTTTGTTATTAT [GTGCAC_site9753],8.56 ± 0.29
14,TTTTTATATTTTATTAGTACTTATTATATATATAAT [XGTACX_site4900],8.56 ± 0.34
15,AAACAATTTTTATTTTGTACATAACAATATATTTAT [XGTACX_site1375],8.4 ± 0.18
16,TTTTTTTTTAAAGAAAATAAAAATATGTACTTGACA [CACACA_negctrl_site1113],8.28 ± 0.33
17,TTATTTGTTTAATATGCATGCTAAAAGGGTTGATGT [TGCATGCA_site581],9.36 ± 0.11
18,ATTTTACATATTTGCACACATATATTTATATACATA [CACACA_site854],8.89 ± 0.4
19,AATATAAAAATGCACACACACAAAAAAAAAAAAAAA [CACACA_site6546],8.37 ± 0.39

row,Sequence,gcPBM binding intensity (ln)
1,GAGTAAAACAAATATACACACCATAAAGTTATAAAA [CACACA_site5008],8.63 ± 0.47
2,AATTTAAATTCATCACGTACATACGTGAATATACAC [XGTACX_site5220],8.77 ± 0.32
3,ATGTAACACATATTTGGTACAGATAGATAAAAGTAT [XGTACX_site8291],8.92 ± 0.45
4,TATATATATATATTCACACATAAAAATAAAATAAAA [CACACA_site4774],9.95 ± 0.32
5,GTATAATATATTTATAGTACATAATTATTTATAAAT [XGTACX_site1826],8.32 ± 0.14
6,TTTTTAAATAACCTATATATTATTATGAAACATAAA [CACACA_negctrl_site916],8.02 ± 0.42
7,ATATATATATATGTGTGTACTTATTTATTTATTTGT [XGTACX_site549],10 ± 0.26
8,TAATAAATCCTATATAGTACATATATGCAAGTATGT [XGTACX_site3955],8.75 ± 0.24
9,TTTTCTTAATATTTATGTATATATATAATATGATAT [TGCATGCA_negctrl_site572],8.37 ± 0.49
10,AAAAATATAAACTGCACACACAAAAAAAAAAGAGAA [CACACA_site1367],8.87 ± 0.59
11,ATTGATTTTTAATATACACACATAAGTACCACAAAA [CACACA_site339],8.77 ± 0.38
12,ACATTAATATAAAGCACACATATATATAATATATAT [CACACA_site508],8.59 ± 0.28
13,TATAACATATTTATATATGACATTATCTATTCATTT [CACACA_negctrl_site864],8.21 ± 0.42
14,CATGATATATAAATATGTACATATATATATATATAT [XGTACX_site1760],10.2 ± 0.23
15,TAATAATAATATAAAATACACACCTATTATTTTTAC [CACACA_site4003],8.28 ± 0.41
16,TTAATATTGTATCCAAGTACACAAATTATTATATTT [XGTACX_site8067],8.29 ± 0.092
17,ATATTATGTGATTGTGCACACTGGAGATTTTTTTTA [CACACA_site1453],8.96 ± 0.057
18,CCCGTAAATACAAAAAGTACAAAAGTTCATCTTATA [XGTACX_site1154],8.65 ± 0.5
